Experimental data reported in ChEMBL document CHEMBL1201862, “PubChem BioAssay data set” (2004).
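Interpolation was linear, between the two tested concentrations surrounding the appropriate level; five concentrations were tested over 48 hours in 96-well plates. GI50: concentration for 50% inhibition of growth.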 Active and inactive are the calls of the source. No stated cut-off is given here; in the data, active = GI50 up to about 1.1 µM and inactive = higher.

Assays:
Assay in all cases: NCI anticancer screen, dose series, 48 h
SNB-19 = tested on: SNB-19
TK-10 = tested on: TK-10
OVCAR-4 = tested on: OVCAR-4
OVCAR-8 = tested on: OVCAR-8
ACHN = tested on: ACHN
NCI-H23 = tested on: NCI-H23
RXF 631 = tested on: RXF 631
DLD-1 = tested on: DLD-1
UO-31 = tested on: UO-31
MOLT-4 = tested on: MOLT-4
HCT-15 = tested on: HCT-15
DMS-114 = tested on: DMS-114
SF-268 = tested on: SF-268
HOP-92 = tested on: HOP-92
Hs-578T = tested on: Hs-578T
SF-295 = tested on: SF-295
SW-620 = tested on: SW-620
MDA-MB-231 = tested on: MDA-MB-231
SK-MEL-2 = tested on: SK-MEL-2
SK-OV-3 = tested on: SK-OV-3
NCI-H460 = tested on: NCI-H460
Malme-3M = tested on: Malme-3M
HOP-62 = tested on: HOP-62
SR = tested on: SR
U-251 = tested on: U-251
SK-MEL-5 = tested on: SK-MEL-5
RPMI-8226 = tested on: RPMI-8226
RXF 393 = tested on: RXF 393
DU-145 = tested on: DU-145
MDA-N = tested on: MDA-N
UACC-257 = tested on: UACC-257
OVCAR-5 = tested on: OVCAR-5
COLO 205 = tested on: COLO 205
786-0 = tested on: 786-0
HCC 2998 = tested on: HCC 2998
DMS-273 = tested on: DMS-273
T47D = tested on: T47D
SF-539 = tested on: SF-539
LOX IMVI = tested on: LOX IMVI
SNB-78 = tested on: SNB-78
OVCAR-3 = tested on: OVCAR-3
K562 = tested on: K562
M14 = tested on: M14
SN12C = tested on: SN12C
NCI-H226 = tested on: NCI-H226
HCT-116 = tested on: HCT-116
A498 = tested on: A498
HT-29 = tested on: HT-29
NCI-H522 = tested on: NCI-H522
CCRF-CEM = tested on: CCRF-CEM
UACC-62 = tested on: UACC-62
KM12 = tested on: KM12
M19-MEL = tested on: M19-MEL
KM-20L2 = tested on: KM-20L2
CAKI-1 = tested on: CAKI-1
A549 = tested on: A549
MDA-MB-435 = tested on: MDA-MB-435
MCF7 = tested on: MCF7
LXFL 529 = tested on: LXFL 529
HOP-18 = tested on: HOP-18
IGROV-1 = tested on: IGROV-1
PC-3 = tested on: PC-3
NCI/ADR-RES = tested on: NCI/ADR-RES
HL-60 = tested on: HL-60
SNB-75 = tested on: SNB-75
BT-549 = tested on: BT-549

## COc1cc2c(c(OC)c1OC)-c1ccc(SC)c(=O)cc1[C@@H](N)CC2
SNB-19
  GI50: active: 15.3 nM
TK-10
  GI50: active: 25 nM
OVCAR-4
  GI50: inactive: 5650 nM
OVCAR-8
  GI50: active: 16.8 nM
ACHN
  GI50: active: 16.3 nM
NCI-H23
  GI50: active: 23.7 nM
RXF 631
  GI50: active: < 10 nM
DLD-1
  GI50: active: < 10 nM
UO-31
  GI50: active: 31.3 nM
MOLT-4
  GI50: active: 16.4 nM
HCT-15
  GI50: 13.1 nM
DMS-114
  GI50: active: < 10 nM
SF-268
  GI50: active: 26.6 nM
HOP-92
  GI50: active: 22.2 nM
Hs-578T
  GI50: active: 15.8 nM
SF-295
  GI50: active: 15.5 nM
SW-620
  GI50: active: 17.5 nM
MDA-MB-231
  GI50: active: 662 nM
SK-MEL-2
  GI50: active: 22.1 nM
SK-OV-3
  GI50: active: 16 nM
NCI-H460
  GI50: active: 16.4 nM
Malme-3M
  GI50: active: 20.8 nM
HOP-62
  GI50: active: < 10 nM
SR
  GI50: active: 196 nM
U-251
  GI50: active: 16.6 nM
SK-MEL-5
  GI50: active: 14.9 nM
RPMI-8226
  GI50: active: 15.2 nM
RXF 393
  GI50: active: 12.3 nM
DU-145
  GI50: active: 22.4 nM
MDA-N
  GI50: active: < 10 nM
UACC-257
  GI50: active: 239 nM
OVCAR-5
  GI50: active: 153 nM
COLO 205
  GI50: active: 13 nM
786-0
  GI50: active: 18.9 nM
HCC 2998
  GI50: active: 16.9 nM
DMS-273
  GI50: active: < 10 nM
T47D
  GI50: inactive: > 100000 nM
SF-539
  GI50: active: 14.3 nM
LOX IMVI
  GI50: active: 18.9 nM
SNB-78
  GI50: active: < 10 nM
OVCAR-3
  GI50: active: 12.9 nM
K562
  GI50: active: 133 nM
M14
  GI50: active: 14.5 nM
SN12C
  GI50: active: 18.3 nM
NCI-H226
  GI50: active: 186 nM
HCT-116
  GI50: active: 15.4 nM
A498
  GI50: active: 10.8 nM
HT-29
  GI50: active: 15 nM
NCI-H522
  GI50: active: 14.6 nM
CCRF-CEM
  GI50: active: 151 nM
UACC-62
  GI50: active: 13.6 nM
KM12
  GI50: active: 13.6 nM
M19-MEL
  GI50: active: < 10 nM
KM-20L2
  GI50: active: < 10 nM
CAKI-1
  GI50: active: 21.2 nM
A549
  GI50: active: 18 nM
MDA-MB-435
  GI50: active: < 10 nM
MCF7
  GI50: active: 349 nM
LXFL 529
  GI50: active: < 10 nM
HOP-18
  GI50: inactive: > 100000 nM
IGROV-1
  GI50: active: 18.6 nM
PC-3
  GI50: active: 15.5 nM
NCI/ADR-RES
  GI50: active: 58.9 nM
HL-60
  GI50: active: 20.5 nM
SNB-75
  GI50: active: 93.1 nM
BT-549
  GI50: active: 29.1 nM
